Test results taken from PubChem BioAssay AID485344 (National Center for Advancing Translational Sciences (NCATS), 2010).
Among all 340,000 compounds or so, about 6,900 (2%) were called active. Cut-off read from the data, not from the text of the source: active = inhibition above about 30%; inactive = below that, where a call was filed. This is a selection; strong and weak results do not stand in their true shares. The source gives no active or inactive call for entries shown without one.

Molecular target: D(2) dopamine receptor (Homo sapiens) (UniProt P14416)
Experiment: HTS Assay for Allosteric Antagonists of the Human D2 Dopamine Receptor: Primary Screen for Antagonists; note: 0% is about no effect
Conditions: HEK293 TREx D2 cells, calcium flux, dopamine EC80; at 10 µM; stronger effect = higher value
Summary of the method: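 Dopamine at EC80 is the agonist stimulus; test compounds precede it by 180 s. Calcium flux read kinetically in a force-coupled, inducible HEK293 T-REx D2 cell line.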

Sequence of UniProt P14416 (P14416 whole entry, looked up): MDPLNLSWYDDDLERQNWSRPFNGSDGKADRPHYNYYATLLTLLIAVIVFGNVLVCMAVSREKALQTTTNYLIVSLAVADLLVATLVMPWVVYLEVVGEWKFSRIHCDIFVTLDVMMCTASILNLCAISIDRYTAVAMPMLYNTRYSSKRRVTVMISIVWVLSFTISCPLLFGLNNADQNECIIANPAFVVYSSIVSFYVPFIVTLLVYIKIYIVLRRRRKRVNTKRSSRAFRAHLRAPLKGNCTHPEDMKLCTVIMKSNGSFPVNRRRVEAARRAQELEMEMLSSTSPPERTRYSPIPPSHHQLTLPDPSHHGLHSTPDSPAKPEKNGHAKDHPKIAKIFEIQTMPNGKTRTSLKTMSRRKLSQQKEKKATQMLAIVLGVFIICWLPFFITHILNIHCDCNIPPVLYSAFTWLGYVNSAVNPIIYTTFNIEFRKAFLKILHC

SMILES	inhibition
O=C(c1ccc(F)cc1)n1nc(-c2ccccc2)nc1NCc1ccc(F)cc1	11.5%
COc1cc2ccccc2cc1C(=O)N1CCN(c2nc3ccc(F)cc3s2)CC1	-11.6%
CCc1nn2c(=O)cc(COC(=O)c3ccccc3NC(=O)C3CCCCC3)nc2s1	-1.6%
CCc1ccccc1NC(=O)CCc1c(C)nn(-c2ccc(N3CCOCC3)nn2)c1C	9.66%
CCCCNC(=O)C1CCC(CNS(=O)(=O)c2ccc(NC(C)=O)cc2)CC1 (stereo unspecified)	-13.6%
COc1ccc(-c2nc3c(c(SCC(=O)N(C)c4ccccc4)n2)Cc2cc(C)ccc2O3)cc1	-18.5%
Cc1ccc2nc(NCc3ccc(F)cc3)c3nncn3c2c1	-3.32%
Cc1nc(-c2ccc(S(=O)(=O)NCc3ccc(N(C)C)cc3)cc2)co1	8.85%
CSc1ccc(CN2CCC(Cc3ccccc3)CC2)cc1	active: 30.8%
Cc1cccc(-n2ncc3c(N4CCN(c5ccccc5)CC4)ncnc32)c1	-1.06%
CCN(CC)c1ccc(NC(=O)Cn2nc(C)n3cccc3c2=O)c(C)c1	-8.54%
COc1cc(CCC(=O)NCc2ccc3c(c2)CCN3C(=O)c2ccc(F)cc2)cc(OC)c1OC	-2.17%
Clc1ccc(-c2nnc(SCc3nc(-c4ccccc4)no3)o2)cc1	active: 40.6%
Cc1cccc(N2CCN(Cc3c(C)n(C)n(-c4ccccc4)c3=O)CC2)c1C	active: 41.2%
COc1cccc(NC(=O)CCN2CCN(c3ccccc3F)CC2)c1	active: 76.6%
Cc1ccc2nc(-c3cccnc3)c(Nc3ccccc3C)n2c1	-0.671%
CCOc1ccc(S(=O)(=O)Nc2nc3ccccc3nc2Nc2ccc(OC)cc2)cc1	-2.91%
CCc1ccc(NC(=O)Cn2c(=O)n(Cc3ccco3)c(=O)c3cccnc32)cc1	-8.22%
CCCNC(=O)CCSc1nc(-c2ccc3c(c2)OCO3)cc(C(F)(F)F)n1	3.02%
COc1ccccc1CCNC(=O)C(=O)NCC1OCCN1S(=O)(=O)c1ccc(Cl)cc1 (stereo unspecified)	active: 36.3%
CCN(CC(=O)NCc1ccc(F)cc1)C(=O)/C=C/c1ccc(OC)c(S(=O)(=O)NC(C)C)c1	active: 33.5%
CC(C)c1ccc(OCC(=O)N(Cc2ccc(N(C)C)cc2)C2CCS(=O)(=O)C2)cc1 (stereo unspecified)	-2.26%
C=Cc1ccc(CSc2nc(-c3ccc(C)cc3)nc3c2Cc2c(CO)cnc(C)c2O3)cc1	-10.1%
O=C(Nc1cccc(C(=O)OCc2cc(=O)n3c4c(sc3n2)CCCC4)c1)c1ccccc1	-7.73%

SMILES	inhibition
O=c1c(S(=O)(=O)c2cccc(Cl)c2)cn(Cc2ccccc2)c2cc(N3CCOCC3)c(F)cc12	-8.83%
Cc1cccc(NC(=O)C(NS(=O)(=O)c2ccc3c(c2)oc(=O)n3C)C(C)C)c1 (stereo unspecified)	3.3%
Cc1ccc(-n2nc(C(=O)N3CCN(c4cc(Cl)ccc4C)CC3)c3c4ccccc4n(C)c3c2=O)cc1	-3.89%
Cc1ccc(Cl)cc1-n1ncc2c(Nc3cccc(C)c3C)ncnc21	20.7%
O=C(c1ccc(CSc2nc3ccncc3n2Cc2ccccc2)cc1)N1CCCCCC1	0.282%
Cc1ccc(NC(=O)Cn2ccn(-c3ccc(F)c(F)c3)c(=O)c2=O)cc1C	10.8%
COc1ccccc1CCNS(=O)(=O)c1ccc(N2CCCCS2(=O)=O)cc1	-10.5%
COc1ccc(NC(=O)CCc2nnc3n(CC(C)C)c(=O)c4ccccc4n23)cc1	-7.54%
CCc1ccccc1NC(=O)C1CCCN(c2ncnc3onc(C)c23)C1 (stereo unspecified)	4.93%
Cc1nc2ccn(Cc3ccco3)c(=O)c2cc1C(=O)N1CCN(c2ccccc2)CC1	-5.29%
Cc1ccc(C2c3[nH]c4ccccc4c3CCN2C(=O)CCC2CCCC2)cc1 (stereo unspecified)	-24.2%
COc1ccc(CNC(=O)c2ccc(CS(=O)Cc3ccccc3Cl)o2)cc1 (stereo unspecified)	-19.1%
COc1ccccc1NC(=O)C1=C(C)Nc2nc(SCc3ccccc3F)nn2C1c1cccs1 (stereo unspecified)	3.49%
O=C(COCc1cc(-c2ccc3c(c2)OCO3)on1)N1CCN(c2ccccc2)CC1	-4.9%
Cc1ccc(C(=O)Nc2cccc(C(F)(F)F)c2)cc1Nc1cncnc1	active: 33.2%
Cc1ccc(S(=O)(=O)NCCc2cn3ccsc3n2)cc1	-18.5%
CCC(CC)C(=O)Nc1nc2c(s1)CC(C)CC2 (stereo unspecified)	4.75%
COc1ccc(-n2nnnc2C2CCN(S(=O)(=O)c3ccc(C(C)(C)C)cc3)CC2)cc1	-13.9%
O=C(Nc1ccc2nc(SCC(=O)N3CCCc4ccccc43)sc2c1)c1ccccc1	17.1%
COc1ccc(N2CCN(C(=O)c3cccc(NC(=O)c4nsc5ccccc45)c3)CC2)cc1	20.7%
CCOC(=O)c1ccc(NC(=O)Nc2cc3c(cc2N2CCCC2)n(C)c(=O)n3C)cc1	-1.86%
COC(=O)c1cc(NC(=O)c2nn(C)c3c2COc2ccccc2-3)cc(C(=O)OC)c1	-27.7%
Nc1c(C(=O)Nc2ccc(F)c(F)c2)sc2nc(-c3ccncc3)ccc12	-17.3%
COc1cccc(CNC(=O)c2cc(C)nc3c2c(C)nn3-c2cccc(F)c2)c1	1.41%

SMILES	inhibition
O=C(Nc1cccnc1)c1cccc(S(=O)(=O)N2CCCCC2)c1	active: 52.6%
Cc1cc(C)cc(NC(=O)Cn2nnc(-c3nc(-c4ccncc4)no3)c2N)c1	-8.56%
Cc1cc2c(cc3c(SCc4nc(-c5ccccc5)oc4C)nnc(C)n32)o1	21.1%
Cc1ccc(N2CCN(S(=O)(=O)c3ccc(F)c(C(=O)Nc4ccc(Cl)cc4Cl)c3)CC2C)cc1 (stereo unspecified)	-0.0823%
COc1cc(NC(=O)c2cc(C)nc3c2c(C)nn3-c2ccccc2Cl)cc(OC)c1	9.15%
Cc1ccc2cc3c(N)nn(C(=O)c4cccc(F)c4)c3nc2c1	-5.78%
CC(=O)c1ccc(NC(=O)c2ccc(-c3nc(CSc4ccccc4)c(C)o3)cc2)cc1	-8.99%
CCc1ccccc1NS(=O)(=O)c1ccc(NC(=O)N2CCCC2)cc1	15.5%
CCOc1ccc(-c2cc(-c3nc(-c4cc(OC)c(OC)c(OC)c4)no3)[nH]n2)cc1	-2.36%
Cc1cc(C)nc(NN2C(=O)/C(=C/c3ccc(O)cc3)SC2=S)n1	active: 44.7%
COc1cc(NC(=O)c2cc3ccccn3n2)cc(OC)c1OC	12.9%
COc1ccc(CCNC(=O)c2cnc3sc(N4CCCC4)nn3c2=O)cc1OC	-0.0853%
O=C(CN1C(=O)COc2ccc(S(=O)(=O)N3CCCCC3)cc21)NCc1ccc(Cl)cc1	3.76%
CN(C(=O)c1cc2c(s1)-c1ccc(Cl)cc1SC2)c1cccc(C(F)(F)F)c1	-3.76%
COC(=O)CSc1nnc(-c2ccc(S(=O)(=O)NCc3ccccc3Cl)cc2)o1	active: 33.3%
Cc1ccc(CNC(=O)c2nnn(CC(=O)Nc3cc(C)ccc3C)c2N)cc1	-4.27%
CSCCC(NS(=O)(=O)c1ccc2c(c1)oc(=O)n2C)C(=O)N1CCN(c2cccc(Cl)c2)CC1 (stereo unspecified)	6.42%
COc1ccc2c(c1)NC(c1cccnc1)=NC(c1ccc(F)cc1)=N2	3.74%
NS(=O)(=O)c1ccc(NC(=O)CSc2nc3ccccc3n2-c2ccccc2)cc1	active: 31.5%
Cc1ccc(CN2C(=O)c3ccccc3Sc3ccc(C(=O)OCc4ccco4)cc32)cc1	14.1%
COc1ccc(Br)cc1CNC(=O)c1ccc2c(c1)N(Cc1ccc(C)cc1)CCS2	-12.2%
CC(C)(C)N(Cc1ccccc1)C(=O)CSc1nnc(CNc2ccc(F)cc2)o1	active: 31.6%
CCOCCCn1c(=N)c(C(=O)NCC2CCCO2)cc2c(=O)n3cccc(C)c3nc21 (stereo unspecified)	5.08%
Cc1ccc(C)c(NC(=O)Cn2c(=O)n(Cc3ccccc3)c(=O)c3oc4ccccc4c32)c1	-9.61%

SMILES	inhibition
Cc1ccc(C)c(N2CCN(Cc3csc(C)c3)CC2)c1	7.21%
COC(=O)C1=C(c2ccccc2)c2ccccc2S(=O)(=O)N1CC(=O)Nc1ccccc1Cl	8.36%
COC(=O)C1CCN(S(=O)(=O)c2cc3c4c(c2)CC(=O)N4CCC3)CC1	-5.83%
Cc1cccc(NS(=O)(=O)c2ccc3c(c2)CCN3C(=O)C2CCC2)c1	10.6%
O=C(Nc1cccc(F)c1)c1ccc(-c2ccccc2)s1	-4.41%
COc1cc(Cl)cc2c1Sc1ccccc1/C2=C/CCN(C)C	active: 63.2%
CCCN(CCC)CCCNC(=O)Cn1cnc2sc(C)c(S(=O)(=O)N3CCC(C)CC3)c2c1=O	-10.1%
O=C(c1cccs1)N1CCCc2cc(NS(=O)(=O)c3ccc(F)cc3F)ccc21	-4.78%
O=C(Cn1c(=O)oc2cc(S(=O)(=O)NCc3ccccc3)ccc21)NCc1ccc(Cl)cc1	0.112%
Cc1ccc(-n2c(SCC(N)=O)nc3c(oc4ccccc43)c2=O)cc1C	1.64%
CCOc1cc(CNC(=O)Cn2c(-c3cccs3)cc3cc(F)ccc32)ccc1OC	7.39%
CC1Cc2cc(S(=O)(=O)N(Cc3ccccc3)C(C)C)ccc2N1C(=O)C1CCC1 (stereo unspecified)	7.53%
Cc1ccccc1Nc1c(-c2cccs2)nc2cccc(C)n12	-2.68%
CCOc1ccc(/C=C/c2nc(C#N)c(NCCc3ccccc3)o2)cc1	-3.23%
O=C(CSc1nc2c([nH]c3ccccc32)c(=O)n1-c1ccc(Cl)cc1)NCC1CCCO1 (stereo unspecified)	-3.63%
Cc1cc(C(=O)Nc2c(C)nc3ccccn3c2=O)ccc1[N+](=O)[O-]	-1.94%
CCOC(=O)c1c(C)oc2nc(C)nc(NCc3ccccc3OC)c12	-15.7%
CC(=O)Nc1ccc(NC(=O)C(C)OC(=O)CCC2CCCC2)cc1 (stereo unspecified)	active: 30.5%
COc1ccccc1NC(=O)Cn1c(=O)n(CCCCCC(=O)NCc2ccccc2)c(=O)c2sccc21	-9.47%
CC1CC(C)CN(CCOc2cccc3ccccc23)C1 (stereo unspecified)	active: 55.1%
Clc1cccc(-c2nn3c(Cn4cnc5ccccc54)nnc3s2)c1	active: 33.9%
Cc1ccc(NC(=O)c2ccc(NC(=O)N3CCSc4ncccc43)cc2)c(C)c1	3.91%
COc1ccc(C)cc1-n1cnc2cc(C(=O)NC3CCCC3)ccc21	-4.73%
COc1cc(C(=O)Nc2nonc2-c2ccc(C)c(C)c2)cc(OC)c1OC	0.518%
